Experimental data as given in patent US20230256108A1, “A DRUG CONJUGATE AND APPLICATIONS THEREOF” (GENEQUANTUM HEALTHCARE (SUZHOU) CO., LTD., priority 2019, published 2023).
Changes are numbered by the printed parent chain.

Columns and labels:
[1] = tested on: Human gastric cancer NCI-N87 tumor; assay: In vivo pharmacodynamic evaluation of DG1002; set-up: species or system BALB/c nude mice; settings: FIG. 9
Protocol: Experimental animals: SPF BALB/c nude mice (Shanghai Sippr-BK laboratory animal Co. Ltd., females, 6-8 weeks, weighing approximately 18-22 g, 30 in total.
Tumor cells: Human gastric cancer NCI—N87 tumor cells were cultured and then collected during the logarithmic growth phase. After digestion, they were collected and suspended in an appropriate amount of PBS, pH 7.4.
Experimental method: Each mouse was inoculated with NCI-N87 cells through subcutaneous injection in the right scapular region. The injection volume was 0.2 ml (containing 1 x 10^7 cells). Each animal in the control group was injected with 0.2 ml PBS, pH 7.4.
At each time point of measurement, the average tumor volume and standard error of the mean (SEM) of each group were used for statistical analysis, and one-way ANOVA was used for comparison of tumor volume among groups. The formula for calculating tumor volume is V = 0.5 a × b^2, wherein a and b are the long and short diameters of the tumor, respectively. All data were analyzed with SPSS 17 software. The standard for statistically significant was P <0.05.
The in vivo pharmacodynamic evaluation of DG1002 was carried out in accordance with the method described in Effect Example 3. The grouping method was as follows: experimental animals with a tumor sizing from 100 to 200 mm^3 are selected and then divided into the following groups, each with 6 animals: a control group which received physiological saline; DG1004 2.5 mg/kg group, 5 mg/kg group and 10 mg/kg group which received reference drug DG1004; DG1002 1 mg/kg group, 2 mg/kg group, and 4 mg/kg group which received the conjugate DG1002 of the present disclosure; and Ab2006410 mg/kg group which received antibody Ab0064.

MCF-7 = assay: Cytotoxicity of TROP2-targeting conjugates; assay type: cell-based; settings: TROP2 high-expressing, HER2-negative or low-expressing
Protocol: (§1) A cytotoxicity assay was performed using a method similar as Example 2, TROP2 high-expressing tumor cells NCI-N87, MDA-MB-468, SK-BR-3, and MCF-7 to measure the effects of the TROP2-targeting conjugates DG202, DG302, DG402, DG502, DG602, DG702, DG802, DG902, DG1002 on tumor cell proliferation. The results are shown in Tables 6-1 and 6-2, wherein NCI-N87 and SK-BR-3 are HER2 high-expressing tumor cells, and MDA-MB-468 and MCF-7 are HER2-negative or HER2 low-expressing tumor cells.

SK-BR-3 = assay: Cytotoxicity of TROP2-targeting conjugates; assay type: cell-based, human; settings: TROP2 high-expressing, HER2 high-expressing
Protocol: as §1

MDA-MB-468 = assay: Cytotoxicity of TROP2-targeting conjugates; assay type: cell-based, human; settings: TROP2 high-expressing, HER2-negative or low-expressing
Protocol: as §1

NCI-N87 = assay: Cytotoxicity of TROP2-targeting conjugates; assay type: cell-based, human; settings: TROP2 high-expressing, HER2 high-expressing
Protocol: as §1

B1: DG1002: Ab0064 (SEQ ID NO: 33,34), LU102, mc(ring open)-MMAF (conjugate)
light: DIQMTQSPSSLSASVGDRVTITCKASQGINNYLSWYQQKPGKAPKSLIYRANRLVSGVPSRFSGSGSGTDFTLTISSLQPEDFATYYCLQYDEFPLTFGGGTKVEIKRTVAAPSVFIFPPSDEQLKSGTASVVCLLNNFYPREAKVQWKVDNALQSGNSQESVTEQDSKDSTYSLSSTLTLSKADYEKHKVYACEVTHQGLSSPVTKSFNRGECGALPETGG
heavy: QVQLVQSGAEVKKPGSSVKVSCKASGYRFTDYVINWVRQAPGQGLEWMGQIYPGSDTFHYNQKFQGRATLTADKSTNTAYMELSSLRSEDTAVYYCARFFEGLAYWGQGTLVTVSS[human IgG1 constant region omitted here]
modifications: LU102 linker, mc(ring open)-MMAF payload; Ab0064 Light chain; Ab0064 Heavy chain
tumor growth inhibition compared with reference drug ([1]; DG1002 1 mg/kg): close to DG1004 (2.5 mg/kg) | tumor growth inhibition compared with reference drug ([1]; DG1002 2 mg/kg): close to DG1004 (5 mg/kg) | tumor growth inhibition compared with reference drug ([1]; DG1002 4 mg/kg): close to DG1004 (10 mg/kg) | IC50 (MCF-7): 0.03 nM | IC50 (SK-BR-3): 0.019 nM | IC50 (MDA-MB-468): 0.034 nM | IC50 (NCI-N87): 0.016 nM

B2: DG702: Ab0061 (SEQ ID NO: 27,28), LU102, mc(ring open)-MMAF (conjugate)
light: B1 light with S56D
heavy: B1 heavy
modifications: LU102 linker, mc(ring open)-MMAF payload; Ab0061 Light chain; Ab0061 Heavy chain
IC50 (NCI-N87): 0.021 nM

B3: DG602: Ab0054 (SEQ ID NO: 25,26), LU102, mc(ring open)-MMAF (conjugate)
light: B1 light with S56D
heavy: B1 heavy with T57S
modifications: LU102 linker, mc(ring open)-MMAF payload; Ab0054 Light chain; Ab0054 Heavy chain
IC50 (MCF-7): 0.047 nM | IC50 (SK-BR-3): 0.025 nM | IC50 (MDA-MB-468): 0.058 nM | IC50 (NCI-N87): 0.028 nM

B4: DG504: reference drug: Ab0053 (SEQ ID NO: 23,24), LU104' (ring open), DM1 (conjugate)
light: B1 light with S56D, F71Y
heavy: B1 heavy with T57S
modifications: LU104' (ring open) linker, DM1 payload; Ab0053 Light chain; Ab0053 Heavy chain
IC50 (NCI-N87): 0.059 nM

B5: DG502: Ab0053 (SEQ ID NO: 23,24), LU102, mc(ring open)-MMAF (conjugate)
light: B1 light with S56D, F71Y
heavy: B1 heavy with T57S
modifications: LU102 linker, mc(ring open)-MMAF payload; Ab0053 Light chain; Ab0053 Heavy chain
IC50 (NCI-N87): 0.027 nM

B6: DG802: Ab0062 (SEQ ID NO: 29,30), LU102, mc(ring open)-MMAF (conjugate)
light: B1 light with S56D
heavy: B1 heavy with T57A
modifications: LU102 linker, mc(ring open)-MMAF payload; Ab0062 Light chain; Ab0062 Heavy chain
IC50 (NCI-N87): 0.021 nM

B7: DG402: Ab0052 (SEQ ID NO: 21,22), LU102, mc(ring open)-MMAF (conjugate)
light: B1 light with S56D, T69Q, F71Y
heavy: B1 heavy with T57S
modifications: LU102 linker, mc(ring open)-MMAF payload; Ab0052 Light chain; Ab0052 Heavy chain
IC50 (NCI-N87): 0.027 nM

B8: DG604: reference drug: Ab0054 (SEQ ID NO: 25,26), LU104' (ring open), DM1 (conjugate)
light: B1 light with S56D
heavy: B1 heavy with T57S
modifications: LU104' (ring open) linker, DM1 payload; Ab0054 Light chain; Ab0054 Heavy chain
IC50 (NCI-N87): 0.065 nM
